Assay results published in PMC4336329 (PLoS ONE, 2015).
Out of some 310,000 compounds screened, about 14,000 (4.5%) showed an effect of 50% or more. The effect is printed as a negative number. The list shows a part of the results.

These molecules were tested against human ether-à-go-go-related gene (hERG) potassium channel (human, UniProt Q12809) (assay: primary screen, population patch clamp on CHO cells stably expressing hERG).
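Also: peak tail current of the secondary pulse compared with the same well before compound.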

human ether-à-go-go-related gene (hERG) potassium channel, sequence (Q12809 whole entry, looked up): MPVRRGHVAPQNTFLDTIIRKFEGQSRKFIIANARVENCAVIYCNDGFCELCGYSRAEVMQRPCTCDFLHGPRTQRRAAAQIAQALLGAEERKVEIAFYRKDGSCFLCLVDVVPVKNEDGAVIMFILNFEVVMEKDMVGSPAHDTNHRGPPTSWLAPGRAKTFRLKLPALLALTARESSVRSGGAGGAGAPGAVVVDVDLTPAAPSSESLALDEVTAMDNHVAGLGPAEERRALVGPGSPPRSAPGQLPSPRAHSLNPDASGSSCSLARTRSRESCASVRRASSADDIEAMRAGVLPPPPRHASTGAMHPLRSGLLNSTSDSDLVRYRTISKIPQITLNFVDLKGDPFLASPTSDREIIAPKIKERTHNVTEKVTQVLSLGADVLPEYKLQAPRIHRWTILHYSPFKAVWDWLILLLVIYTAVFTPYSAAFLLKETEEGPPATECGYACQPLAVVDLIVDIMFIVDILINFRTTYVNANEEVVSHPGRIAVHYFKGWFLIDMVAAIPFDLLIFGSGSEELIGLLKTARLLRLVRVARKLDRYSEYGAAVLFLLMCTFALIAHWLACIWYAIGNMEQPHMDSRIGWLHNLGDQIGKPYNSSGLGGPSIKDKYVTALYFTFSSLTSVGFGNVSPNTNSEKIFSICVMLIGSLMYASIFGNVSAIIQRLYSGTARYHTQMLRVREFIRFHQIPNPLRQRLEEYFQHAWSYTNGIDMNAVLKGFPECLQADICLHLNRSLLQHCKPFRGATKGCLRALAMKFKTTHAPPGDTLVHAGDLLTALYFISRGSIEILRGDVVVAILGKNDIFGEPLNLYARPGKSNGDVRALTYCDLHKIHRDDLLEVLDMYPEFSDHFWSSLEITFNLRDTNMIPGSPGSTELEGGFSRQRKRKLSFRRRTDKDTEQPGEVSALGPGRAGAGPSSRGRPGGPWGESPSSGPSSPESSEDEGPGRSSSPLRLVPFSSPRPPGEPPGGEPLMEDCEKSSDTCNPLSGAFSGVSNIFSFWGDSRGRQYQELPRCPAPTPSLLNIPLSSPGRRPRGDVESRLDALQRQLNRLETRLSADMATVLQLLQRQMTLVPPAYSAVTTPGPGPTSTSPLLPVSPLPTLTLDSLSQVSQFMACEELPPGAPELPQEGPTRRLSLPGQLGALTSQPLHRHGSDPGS

SMILES	hERG current change (%, negative = inhibition) at 10uM
CCn1c(CNC(=O)c2ccccc2F)nnc1SCC(=O)NC1CCCCC1C (stereo not drawn)	31.8%
CC(=O)Oc1c(C)c(OC(C)=O)c2c(c1C(C)=O)OC1CC(=O)C(C(C)=O)=C(O)C21C (stereo not drawn)	5.99%
O=C(O/N=C(/c1ccccc1)c1ccncc1)c1ccccc1[N+](=O)[O-]	-14%
Cc1ccc2oc(C(=O)N3CCN(CC(=O)NC(C)C)CC3)c(C)c2c1	-29.6%
N#Cc1c2c(c(=S)n(-c3ccccc3)c1N)CCCC2	5.08%
COc1ccc(C2=NO[C@@H]3C(=O)N(c4ccc5c(c4)OCCO5)C(=O)[C@H]23)cc1OC	-1.41%
O=C(CCNC(=O)c1ccc(Cl)cc1)Nc1cccc(S(=O)(=O)N2CCCCC2)c1	-46%
CC1CC=C2C(C#N)=C(N)C(C#N)(C#N)C(c3cccs3)C2C1 (stereo not drawn)	-3.93%
COCCOc1ccc(C(F)(F)F)cc1N	26.3%
CS(=O)(=O)N1CCN(c2ccccc2NC(=O)c2ccc(Br)o2)CC1	-36.3%
COC(=O)C1=C(C)N=C2SC(C#N)=C(N)N2C1c1ccc(OC)cc1 (stereo not drawn)	-16.9%
Cc1occc1C(=O)N1CCN(C(c2ccccc2)c2ccccc2)CC1	-16.8%
N#CCSCC(=O)Nc1ccc(Cl)cc1	6.07%
O=C(N/N=C\c1cccnc1)c1ccc(Br)s1	-6.65%
Cc1nnc(SCc2nc3sc4c(c3c(=O)[nH]2)CCCC4)[nH]c1=O	13%
Cc1cc(C)c(C)c(OCC(=O)O/N=C(\N)c2ccccn2)c1	-1.24%
C/C(=N\Nc1ccccc1C(=O)O)c1ccncc1	0.449%
C#CCSc1nnc(-c2ccc(O)cc2)o1	9.73%
CC(=O)c1cccc(NC(=O)c2cnn(-c3ccccc3)c2C)c1	-10.5%
CCC(=O)/C(=C(/O)c1ccccc1)c1nc2ccccc2[nH]1	42.1%
O=C(/C(Br)=C/Nc1cc(Cl)ccc1Cl)C(F)(F)F	-35.3%
COc1ccc(NC2=NCCCS2)cc1OC	10.3%

SMILES	hERG current change (%, negative = inhibition) at 10uM
CC(C)n1c(=S)[nH]c2cc(Cl)ccc21	16.9%
OC(CSc1ccccc1Cl)CN1CCN(c2ccc(F)cc2)CC1 (stereo not drawn)	-57.4%
Cc1ccc(C(=O)O)cc1S(=O)(=O)N1CCC(C(=O)O)CC1	-4.77%
COc1cc(C(c2nnnn2C2CCCC2)N2CCc3ccccc3C2)ccc1O.Cl (stereo not drawn)	-20.7%
O=C(NCc1ccncc1)c1cccc(S(=O)(=O)Nc2ccc(SC(F)F)cc2)c1	-3.21%
COc1ccccc1CCNC(=O)C(=O)NCC1OCCN1S(=O)(=O)c1ccc(F)cc1 (stereo not drawn)	-5.58%
COc1ccc2nc(NC(=S)N(C)C)sc2c1	21.2%
Cc1ccc2oc(=O)n(CCOc3ccccc3C)c2c1	9.56%
CCn1cc(C(=O)NCCCN2CCC(C)CC2)c(=O)c2cc(S(=O)(=O)N3CCCC3)ccc21	-7.61%
Cc1ccc(CN2CCN(Cc3ccccn3)CC2CCO)cc1 (stereo not drawn)	-47.9%
CCN1CCN(S(=O)(=O)c2ccc(Cl)c(C(=O)NC3CCCC3)c2)CC1	5.28%
COc1ccc(Cl)cc1C(=O)NNC(=O)c1csc(N2CCOCC2)n1	9.47%
O=C1/C(=C/c2ccco2)Cc2ccccc21	-2.94%
O=C(CCCn1cnc([N+](=O)[O-])n1)Nc1cccc(O)c1	9.95%
O=C(Nc1ccc2c(c1)OCCO2)C1CC1c1ccccc1 (stereo not drawn)	9.64%
CSCCC(NC(=O)C1CCC(C)CC1)C(=O)NCCN1CCC(C)CC1 (stereo not drawn)	-19.9%
CC(C)(C)c1cnnn1-c1ccc(-c2csc(N)n2)cc1	-3.16%
CC(C)c1ccc(CN2CC(C(=O)Nc3ccccc3)CC2=O)cc1 (stereo not drawn)	-8.95%
CS(=O)(=O)O.CSc1ccc2c(c1)C(N1CCN(C)CC1)Cc1ccccc1S2 (stereo not drawn)	-65.9%
CCCc1cc(C(=O)Nc2nnc(C)s2)cs1	4.22%
CCCCCCCCc1nnc(NC(=O)c2ccco2)s1	12.3%
COc1ccc(C(C)=O)cc1COC(=O)CSC(C)C(=O)Nc1cc(C)on1 (stereo not drawn)	0.0735%

SMILES	hERG current change (%, negative = inhibition) at 10uM
Cc1ccc2nc(-c3ccc(NC(=O)CSc4nccc(=O)[nH]4)cc3)sc2c1	16.2%
O=C(N/C(=C\c1cccc(Br)c1)C(=O)N1CCOCC1)c1ccco1	2.03%
O=C(NCCc1nnc2ccc(NCc3ccc(Cl)cc3)nn12)c1ccccc1	-14.8%
COCCCNC(=O)c1c[nH]c2ccc(S(=O)(=O)N(C)c3ccccc3C)cc2c1=O	-4.77%
CCC(=O)NC(=S)Nc1ccc(NC(=O)COc2ccc([N+](=O)[O-])cc2)cc1	-2%
COC(=O)C1=C(C)N(C)C(=S)NC1c1cc(OC)ccc1OC (stereo not drawn)	-0.711%
CCCN(CCC)C(=O)c1oc2ccccc2c1NC(=O)Cc1cccc(OC)c1	4.67%
Cc1ccc(C(O)c2ccc(-n3ccnc3)cc2)cc1 (stereo not drawn)	-1.74%
COc1ccc(-c2csc(N(CC3CCCO3)C(=O)c3cccs3)n2)cc1 (stereo not drawn)	-11.4%
CCc1ccc(NC(=O)c2ccc3c(=O)n4c(nc3c2)CCCCC4)cc1	-46.8%
COc1ccc(/C=N/NC(=O)c2cc3c(OC)ccc(OC)c3[nH]2)cc1O	19.1%
C=CC1=C2C=C(C3CC3)N(C3CC3)C=C2C(=O)C(C)(OC(=O)c2ccco2)C1=O (stereo not drawn)	0.53%
NC(=O)NC(=O)CC1S/C(=N/N=C/c2ccccc2)NC1=O (stereo not drawn)	16.9%
Cc1ccc(NC(=O)Cn2c(=O)n(CCC(=O)NC3CCN(Cc4ccccc4)CC3)c(=O)c3ccccc32)cc1	-1.53%
Cc1ccc(C2(c3noc(CN(C)Cc4cccnc4)n3)CCCC2)cc1	-2.8%
C/C(=N\Nc1cccc2cccnc12)c1ccccc1O	12.4%
CCCOc1nc2c(c(=O)n(C)c(=O)n2C)n1Cc1cccc2ccccc12	-4.43%
CC(C)(C)NC(=O)CN(C(=O)CCN1CCCc2ccccc21)C(C)(C)C	-0.396%
CCc1ccc(Nc2nnc(SCC(=O)N(C)CC(=O)Nc3ccccc3CC)s2)cc1	-14.8%
COC(=O)C1=C(C)N(c2ccc(OC)c(OC)c2)C(=O)/C1=C\c1cccs1	14.6%
Cn1c(=O)oc2cc(S(=O)(=O)N3CCC(C(=O)N4CCN(c5ccccc5)CC4)CC3)ccc21	-10.2%
CCN(CC)C(=O)Nc1c(C)n(C)n(-c2ccccc2)c1=O	0.329%

SMILES	hERG current change (%, negative = inhibition) at 10uM
Cn1ccnc1SCC(=O)NC1(C#N)CCCCC1	6.91%
O=C(Nc1nc(-c2ccccc2)ns1)c1cccs1	-3.32%
CCN1CCN(Cc2ccc(NC(=O)c3ccc(C)c(NC(=O)c4nccn4C)c3)cc2C(F)(F)F)CC1	-4.82%
Cc1c(-c2nc(N)nc(Nc3ccccc3)n2)oc2ccccc12	13%
COc1ccc(C(=O)CCc2nc3ccccc3s2)cc1	4.87%
Cc1cccc(-n2cc(-c3ccc([N+](=O)[O-])cc3)[nH]c2=S)c1	-2.96%
O=C(COC(=O)c1ccccc1SCC(=O)N1CCCC1)Nc1ccc(OC(F)F)cc1	-48%
CC(C)Cn1c(N2CCN(CC(=O)Nc3ccc(Cl)cc3)CC2)nc2ccccc21	-70.5%
O=C(CCC(=O)n1ncc2ccccc21)NCc1ccccc1Cl	6.63%
O=c1[nH]c(C2CCN(S(=O)(=O)c3ccc(C(F)(F)F)cc3)CC2)nc2c1nnn2Cc1cccc(F)c1	-8.3%
CCCCN(C(=O)CCCc1nc2ccccc2c(=O)[nH]1)c1c(N)n(CC(C)C)c(=O)[nH]c1=O	-5.68%
CCOC(=O)N1CCN(C(=O)c2noc(C(C)C)c2[N+](=O)[O-])CC1	-4.21%
Cc1cccc(NS(=O)(=O)c2cc3c(cc2C)N(C)CCO3)c1	8.56%
CCOc1ccc(N2C(=O)C3Sc4[nH]c(=O)sc4C(/C=C/c4ccccc4)C3C2=O)cc1 (stereo not drawn)	1.26%
O=C(O)C(=O)O.O=S(=O)(c1ccc(F)cc1)N1CCN(CC2CC3C=CC2C3)CC1 (stereo not drawn)	9.53%
C/C(=N/NS(=O)(=O)c1ccc(C(C)(C)C)cc1)c1ccc2c(c1)OCO2	-3.17%
Cc1cccc(C)c1NC(=O)COC(=O)c1ccc2[nH]c3c(c2c1)CCCC3	4.47%
O=C(O)CSCC(=O)N1CCN(c2cc(C(F)(F)F)nc3ccccc23)CC1	23.5%
COc1cc(/C=C2/SC(=S)N(Cc3ccccc3)C2=O)ccc1O	3.35%
CCOC(=O)C1=C(CSc2nc(-c3ccccc3)ccc2C#N)OC(N)=C(C#N)C1c1ccc(OC)cc1 (stereo not drawn)	6.85%
C=CCNC(=O)c1cn(CC)c2cc(N3CCN(C(=O)c4ccco4)CC3)c(F)cc2c1=O	-63.6%
